About 4,300 (8.3%) of roughly 52,000 compounds were called active. No stated cut-off is given here; in the data, active means survival mostly below about 52% (no sharp cut-off); inactive means mostly above about 56%. Some of the results follow.
test system: DeltatarO mutant; experiment: growth inhibition of S. aureus wild type versus tarO mutant, primary screen, teichoic acid synthesis inhibitors, RN4220, OD600 (AID 463173); settings: OD600, 18 h, hits give low values, screened at 18.75 µg/mL (by protocol)

Compound	survival
COc1ccc(CCC(=O)NCc2nc3cccnc3n2Cc2ccc(OC)cc2)cc1	inactive: 77%
CNC(=O)C1CCN(C(=O)N2CC(C)Oc3ccc(C)cc32)CC1 (centres undefined)	inactive: 86%
O=C(CN1CCN(c2cccc(Cl)c2)CC1)Nc1nccs1	inactive: 93%
O=S(=O)(Nc1ccc(O)cc1)c1cccs1	inactive: 83%
Cc1ccc(C)c(NC(=O)Cn2nnc(C(=O)NCc3ccco3)c2N)c1	inactive: 102%
COc1ccc(NC(=O)C2CCN(c3nc(-c4ccc(OC)c(OC)c4)no3)CC2)cc1Cl	inactive: 54%
COc1ccc(-c2cc(C(=O)OCC(=O)c3cccc(OC)c3)c3cccc(Cl)c3n2)cc1	inactive: 74%
CCOC(=O)c1c(NC(=O)c2cc(=O)c3c(C)cc(C)cc3o2)sc2c1CCC2	inactive: 61%
COc1ccccc1N(C)C(=O)Cn1c(=O)oc2cc(S(=O)(=O)N3CCCC3)ccc21	inactive: 123%
Cc1ccccc1CNC(=O)C1CCCN(c2nnc(-n3c(C)ccc3C)s2)C1 (centres undefined)	inactive: 72%
Cc1ccc(CNC(=O)Cn2c(=O)n(-c3ccccc3)c(=O)c3c2c2cc(C)ccc2n3C)cc1	inactive: 94%
Cc1ccc(NC(=O)CCSc2nc(-c3ccc4c(c3)OCO4)cc(C(F)(F)F)n2)cc1	inactive: 66%
CCCCN(C)CCNC(=O)Cn1ncc2c([nH]c3ccccc32)c1=O	active: 8%
CCN(CC)CCNc1c2c(nc3cc(-c4ccc(OC)c(OC)c4)nn13)CCC2	inactive: 80%
CCc1ccc(Oc2nc3c(C)cccn3c(=O)c2/C=C(\C#N)c2nc3ccccc3s2)cc1	inactive: 71%
O=C(c1ccc(Cl)cc1)n1nc(-c2ccco2)nc1NCc1cccs1	inactive: 68%
O=C(O)CCc1ccc(-c2ccccc2)n1-c1cccc(Br)c1	inactive: 65%
COc1cc(/C=C/c2nc(C#N)c(NC(C)c3ccccc3)o2)cc(OC)c1OC (centres undefined)	active: 40%
CN(Cc1ccccc1)C(=O)c1cc2c(s1)-c1ccc(Cl)cc1SC2	inactive: 86%
CCOc1ccc(CNC(=O)Cn2c(=O)c3cccn3c3ccc(F)cc32)cc1OC	inactive: 47%
O=C(CCCCn1c(=O)c2ccccc2n(CC(=O)Nc2cccc(F)c2)c1=O)NCc1ccccc1Cl	inactive: 89%
CCOC(=O)c1c(S(=O)(=O)N2CCCC(C(=O)Nc3ncccc3C)C2)c(C)n(C)c1C (centres undefined)	inactive: 76%
O=C(OCc1ccccc1Cl)c1ccc(-c2nnn(Cc3ccccc3Cl)n2)cc1	inactive: 56%
Cc1ccc(NC(=O)CCc2c(C)nn(-c3ccc(N4CCOCC4)nn3)c2C)cc1F	inactive: 98%
